# According to PubChem BioAssay AID588855 (National Center for Advancing Translational Sciences (NCATS), 2011):
# Hit rate of the full screen: of about 410,000 compounds, about 5,000 (1.2%) were called active. The inconclusive results got no clear call from the source; some entries with a clear call stand among them for comparison. Calls come from the whole dose curve; as a rule, active = well fitted inhibition curve with a large enough effect; inconclusive = small, poorly fitted or top-dose-only effect; inactive = no such curve, though single readings can be large or run the other way. Where the call is inconclusive, the potency comes from a doubtful curve fit.
# Assay: qHTS for Inhibitors of TGF-b; note: nearly all actives have a fitted effect of over 65% in size
# Details: HepG2 CAGA-GFP TGF-b/SMAD3 reporter, GFP fluorescence, 18 h, TGF-beta stimulated, 500 pg/mL final; series mostly up to 46.1 µM; activity, negative = inhibition: at the top concentration
# Procedure, shortened: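 Cell-based qHTS in HEPG2 carrying a CAGA-GFP Smad reporter; compounds added before 500 pg/mL final TGF-beta, 18 h incubation at 37 degrees C, GFP fluorescence quantified per cell by imaging cytometry.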
# % is set by controls: 0 for no effect and ±100 for the full control effect; potency is the fitted concentration of half-maximal effect; tags give direction and shape of the fitted curve.
Structure (SMILES),Potency,"activity, negative = inhibition"
COc1cc(/C=N/NC(=O)c2ccc(CN3C(=O)c4cccc5cccc3c45)cc2)cc(OC)c1O,"inconclusive: 11.2 µM [inhibitor, partial curve]",–
Cc1ccc2nc(N(CCCN(C)C)C(=O)c3cc4ccccc4oc3=O)sc2c1,–,inactive: -0.732%
CCOc1cc(/C=N/O)ccc1OCc1ccc(C)cc1,"inconclusive: 22.4 µM [inhibitor, partial curve, poor fit]",–
Nc1nc2c(nnn2C2CC(O)C(CO)O2)c(=O)[nH]1 (stereo not drawn),"inconclusive: 15.8 µM [inhibitor, single point]",–
Cc1cc2c(n1-c1ccc(C(=O)NCc3cccc(Br)c3)cc1)CCC(C)C2 (stereo not drawn),"inconclusive: 12.6 µM [inhibitor, partial curve, poor fit]",–
Cc1ccc(N2C(=O)CSC23C(=O)Nc2ccccc23)cc1F (stereo not drawn),–,inactive: 5.87%
CN(C)c1ccc(/C=N/NC(=O)CN(c2cccc(Cl)c2)S(C)(=O)=O)cc1Br,"inconclusive: 11.2 µM [inhibitor, single point]",–
Cc1ccc(NC2CCCN(C(=O)CCN3CCCCO3)C2)cc1C (stereo not drawn),–,inactive: 6.28%
COc1cccc(NC(=O)Cc2ccc(NC(=O)N3CCCCc4ccccc43)cc2)c1,"inconclusive: 8.91 µM [inhibitor, partial curve]",–
CN(C)/C=N/c1cnc(C(=O)c2ccc(Cl)cc2)n1C,–,inactive: 2.59%
O=C(Nc1cccc(C(=O)N2CCCc3ccccc32)c1)c1ccccc1,"inconclusive: 35.5 µM [inhibitor, single point]",–
Cc1cc(C)cc(-n2c(C)cc(/C=N/NC(=O)CN(c3c(C)cccc3C)S(C)(=O)=O)c2C)c1,"inconclusive: 17.8 µM [inhibitor, single point]",–
CCCN1CCN(C(=O)c2cc(COc3ccc(F)cc3F)on2)CC1,"inconclusive: 14.1 µM [inhibitor, single point]",–
COc1ccc(S(=O)(=O)Nc2ccccc2N2CCOCC2)cc1OC,–,inactive: 1.74%
Cc1ccc(N2CCN(CCCN3C(=O)C4CCCN4C3=O)CC2)cc1 (stereo not drawn),"inconclusive: 0.562 µM [inhibitor, full curve, poor fit]",–
O=C(O)c1ccccc1Nc1cccc(OCc2ccc3ccccc3n2)c1,–,inactive: 3.1%
O=C1COc2ccc(C(=O)COC(=O)/C=C/c3ccc(Br)o3)cc2N1,–,inactive: -11.4%
COc1ccccc1NC(=O)CN1C(=O)C(C)(C)c2ccccc21,–,inactive: -18.2%
S=C(SSC(=S)N1CCOCC1)N1CCOCC1,active: 0.562 µM,–
COCCCN1C(=O)C(=O)/C(=C(/O)c2ccc(S(=O)(=O)N3CCOCC3)cc2)C1c1ccc(C)cc1 (stereo not drawn),–,inactive: -5.98%
O=C1CSC(=S)N1c1ccc(O)cc1,"inconclusive: 15.8 µM [inhibitor, single point]",–
CC(C)C(C(=O)NCC1CCCO1)N(C(=O)CNS(=O)(=O)c1ccccc1)C1CCCCC1 (stereo not drawn),–,inactive: 6.89%
Cc1cc(C)c(Cn2cnc(-c3ccc([N+](=O)[O-])cc3)c2)c(C)c1,"inconclusive: 10 µM [inhibitor, partial curve, poor fit]",–
O=[N+]([O-])c1cc(Cl)c(Cl)c(Cl)c1Cl,–,inactive: 10.4%

Structure (SMILES),Potency,"activity, negative = inhibition"
CSc1ccccc1OCc1cc(C(=O)NCCC2=CCCCC2)no1,–,inactive: 4.83%
Cc1ccc(C(c2ccc(C)o2)c2cccc([N+](=O)[O-])c2O)o1,–,inactive: -2.15%
OC(COc1ccc(Cl)cc1)CN1CCN(c2cccc(Cl)c2)CC1 (stereo not drawn),"inconclusive: 35.5 µM [inhibitor, single point]",–
Cc1ccc2cccc(OCC(=O)NCCC3=CCCCC3)c2n1,–,inactive: -5.14%
Cc1ccc2oc(C(=O)NCC(c3ccc(Cl)cc3)N3CCOCC3)c(C)c2c1 (stereo not drawn),–,inactive: -9.92%
Cc1ccc(C(=O)OC(C(=O)Nc2ccc(Cl)cc2C(F)(F)F)c2ccccc2)cc1 (stereo not drawn),"inconclusive: 35.5 µM [inhibitor, single point]",–
CCCOc1ccc2c(CC)cc(=O)oc2c1C,"inconclusive: 35.5 µM [inhibitor, partial curve, poor fit]",–
COc1cccc(NC(=O)CCSc2nnc3scc(-c4ccccc4)n23)c1,"inconclusive: 1.41 µM [inhibitor, partial curve]",–
CC1=C(C(=O)OCCOc2ccccc2)C(c2ccc(C)o2)C2=C(CC(C)(C)CC2=O)N1 (stereo not drawn),–,inactive: 8.93%
CCOC(=O)c1ccc(N2C(=O)c3n[nH]c(-c4ccco4)c3C2c2cccc([N+](=O)[O-])c2)cc1 (stereo not drawn),"inconclusive: 22.4 µM [inhibitor, single point]",–
O=C(N/N=C/c1ccc(Br)s1)c1ccccn1,–,inactive: -22.9%
COc1cc(C2C(C#N)=C(C)NC3=C2C(=O)CC(C)(C)C3)ccc1OCCO (stereo not drawn),"inconclusive: 35.5 µM [inhibitor, single point]",–
O=C(COC(=O)CNC(=O)c1ccccc1F)Nc1ccc2c(c1)OCO2,"inconclusive: 15.8 µM [inhibitor, partial curve, poor fit]",–
CCOC(=O)c1cnc(-c2ccccc2)nc1Oc1cccc(Cl)c1,"inconclusive: 6.31 µM [inhibitor, single point]",–
CCCOc1ccc(CNC(=O)CCCN2C(=O)CSc3c2c(C)nn3-c2ccccc2)cc1,"inconclusive: 11.2 µM [inhibitor, partial curve, poor fit]",–
CCOc1ccc(-n2c(-c3ccccc3)c[n+]3c2CCCCC3)cc1,"inconclusive: 15.8 µM [inhibitor, partial curve, poor fit]",–
CC1C(=O)N(Cc2ccc(F)cc2)c2ccccc2N1C(=O)c1c(F)cccc1F (stereo not drawn),–,inactive: -16.6%
O=C(C1CCC(Cn2c(=S)[nH]c3ccccc3c2=O)CC1)N1CCN(c2ccccn2)CC1 (stereo not drawn),–,inactive: -16.6%
CCc1cc(C(=O)Nc2ccc(OC)nc2)sc1C,–,inactive: 1.26%
Cc1ccsc1C=C1C(=O)c2ccccc2C1=O,"inconclusive: 17.8 µM [inhibitor, single point]",–
COc1ccccc1C(=O)NCC(=O)OCC(=O)c1cccc2ccccc12,inactive,–
CC(OC(=O)c1cc2sccc2n1C)C(=O)NC(C)(C)C (stereo not drawn),"inconclusive: 6.31 µM [inhibitor, single point]",–
CCn1c(SCc2ccccc2)nnc1C1CCCCC1,–,inactive: 0%
O=C(CCCCCn1c(=O)[nH]c2ccsc2c1=O)NCc1ccccc1,"inconclusive: 10 µM [inhibitor, partial curve, poor fit]",–
